Hit rate of the full screen: of about 1,200 compounds, about 55 (5%) were called active. Inconclusive results (about 15%) are left out. Calls come from the whole dose curve; as a rule, active = well fitted inhibition curve with a large enough effect; inconclusive = small, poorly fitted or top-dose-only effect; inactive = no such curve, though single readings can be large or run the other way. The list shows a part of the results.
Experiment: qHTS Assay to Find Inhibitors of Chronic Active B-Cell Receptor Signaling: Hit Validation in Renilla Reporter Assay; note: nearly all actives have a fitted effect of over 70% in size
Conditions: TMD8 IkB-Renilla luciferase reporter, NF-kB signaling; series mostly up to 57.5 µM; activity change, negative = inhibition: at the top concentration
Description: Diffuse large B-cell lymphoma (DLBCL) is the most common category of non-Hodgkin lymphoma, with ~20,000 new cases per year in the United States. DLBCL should be regarded as a collection of different neoplasms. Microarray gene expression analysis has defined two principal types of DLBCL, named for their similarity to normal B cell stages or activation states: a germinal center B-cell (GCB) type, and an activated B-cell (ABC) type. In ABC-DLBCL, a constitutive high-level activity of the NF-kappaB family of transcription factors has been observed (1) and NF-kappaB target genes are more highly expressed in ABC primary tumors than in GCB tumors. Functional studies have shown a constitutive high-level activity of the IkappaB (inhibitor of kappa-B) kinase (IKK) complex. […] Further analysis of DLBCL primary tumors for NF-kappaB target gene expression imply that although CARD11 is required for constitutive IKK activity in all ABC-DLBCL lines, mutations in CARD11 may be the root cause of IKK activation only in lines or tumors with such mutations. In other words, CARD11 mutations may explain NF-kappaB activation in only 10% of ABC-DLBCL cases. […] This process has been termed 'chronic active BCR signaling' (CABS). The goal of this screen is to find small-molecule inhibitors of the CABS pathway found in ABC-DLBCL lines using a cell-based assay that measures IkappaBalpa stability, which has already been extensively validated in the OCI-Ly3 line (PubChem AID:445; REF: 4). […] Hits from the primary screen were tested in this orthogonal secondary assay. NIH Molecular Libraries Probe Production Network [MLPCN] NIH Chemical Genomics Center [NCGC] MLPCN Grant: R03 DA031086 PI Name: Dr. R. Eric Davis
The IkB-Photinus/Renilla reporter assay differs from the primary assay in that the reporters are constitutively expressed, and based on luciferases that are different from the click beetle luciferases and each other. These differences should help to eliminate artifactual sources of activity specific to the primary assay. This assay uses the Dual-Glo substrate from Promega; extensively validated in a 96-well format, it could be converted to a smaller-well format. All lines needed for the IkB-Photinus/Renilla assay have already been prepared and extensively validated
% is set by controls: 0 for no effect and ±100 for the full control effect.

Activity change, negative = inhibition, inactive:
COc1cccc(/C=N/NC(=S)Nc2cccc(S(=O)(=O)N(C)C)c2)c1 17.9%, Cc1ccc(C)c(/C=N/NC(=S)NC(C)C)c1 -0.524%, CCOc1ccc(S(=O)(=O)Nc2ccc3oc(C)c(C(=O)OCCOC)c3c2)cc1 9.42%, CCCc1oc2ccc(NS(=O)(=O)c3ccc(OC)cc3)cc2c1C(=O)OCC -26.6%, COc1cc(-c2noc(C)c2-c2ccc(N(C)C)nc2)cc(OC)c1OC -28.4%, Cc1cc(C(=O)OCC(=O)Nc2c(Cl)cccc2Cl)c(C)o1 2.16%, CCc1ccc(CNC(=O)Cc2ccc(NC(=O)C3=C(C)OCCS3)cc2)cc1 0.25%, CCOC(=O)C1=C(COC(=O)/C=C/c2ccc(O)c(OC)c2)NC(=O)NC1C (configuration not stated) -15%, COc1cccc(C(=O)Nc2cc(NC(=O)c3cccs3)ccc2C)c1OC 12.1%, COc1cc(CC(=O)OCC(=O)c2ccc3c(c2)OCCO3)cc(OC)c1OC -4.05%, CCOc1ccccc1NC(=O)Cn1nnc(C(=O)NCc2cccs2)c1N -8.82%, C=CCSc1nc(C)cc2c1C(=O)OC2 -3.05%, c1ccc2c(CSc3ncnc4nc[nH]c34)cccc2c1 -5.76%, CCOCCCNC(=O)c1ccc2c(c1)N=C(CC)c1cc(Br)ccc1S2 -0.63%, CCc1ccc(CCC(=O)Nc2sc3c(c2C#N)CCCC3)o1 -12.7%, O=C(CSc1nnnn1-c1ccccc1)Nc1nsc(-c2ccc(Cl)cc2)n1 -1.99%, COc1ccccc1C1C2=C(COC2=O)Nc2cc3c(cc21)OCO3 (configuration not stated) -27.1%, Cc1cc(C)cc(N2CC(O)=C(c3nc4ccccc4c(=O)[nH]3)C2=N)c1 -4.94%, COc1ccc(/C=C/C(=O)Nc2ccc(-n3nncc3-c3ccc(OC)c(OC)c3)cc2)cc1OC -16.2%, CCOC(=O)c1c(C)n(C)c2ccc(OC)c(NC(=O)CN3CCC4(CC3)OCCO4)c12 0.686%, CCc1cc2c(SCC(=O)NC3CC3)ncnc2s1 -3.97%, S=c1nn[nH]n1C12CC3CC(CC(C3)C1)C2 -6.62%, CCC(=C/c1sc2ccc3ccccc3c2[n+]1C)/C=C1\Sc2ccc3ccccc3c2N1C -21.8%, CCOC(=O)C1=C(O)/C(=C/c2ccc(OCC(=O)O)c(OCC)c2)SC1=Nc1ccccc1 -13%, C=CCN(CC=C)C(=S)NC(=O)c1ccc(OC)cc1 2.46%, COc1ccccc1OCCCN1C(=O)C(=O)c2cccc(C)c21 -19.7%, O=C(COc1ccc(-c2ccccc2)cc1)N1CCN(S(=O)(=O)Cc2ccccc2)CC1 -6.24%, COc1ccc(CC2(CO)CCN(Cc3cccc4nccnc34)CC2)cc1 -0.999%, Cc1c(CCC(=O)N2CCC(C(=O)O)CC2)c(=O)oc2cc3oc4c(c3cc12)CCCC4 -27.6%, COC(=O)c1ccc(Oc2cc(C)nc(-n3nc(C)cc3C)n2)cc1 -11%, Fc1ccc(/C=N/NC(=S)Nc2cccnc2)cc1 -11.2%, COc1ccc(C(=O)c2ccc(N(C)C)cc2)c2ccccc12 19.5%, COc1ccccc1CNC(=O)CSC(=S)N1CCCC1 1.74%, O=C(Nc1ncc(Cc2ccc(SC(F)F)cc2)s1)c1ccccc1 -0.639%, COc1cc(/C(C)=N/NC(=S)NC(C)C)cc(OC)c1OC -7.98%, COc1ccc(NS(=O)(=O)c2cc(-c3cnc(C4CC4)o3)ccc2C)cc1 31.4%, O=S1(=O)[C@H]2C[C@H](CO)O[C@@]2(CO)CN1Cc1ccc(-c2cccc(Cl)c2)cc1 -16.5%, CCOc1cc(C(=O)N/N=C/C(Br)=C/c2ccccc2)cc(OCC)c1OCC 0.0301%, CCC1=Nc2cc(C(=O)NCCCOC(C)C)ccc2Sc2ccc(C)cc21 -27.5%, COc1ccc(-c2cnnn2-c2ccc(NC(=O)c3ccc(S(=O)(=O)N4CCCCC4)cc3)cc2)cc1OC 9.05%, O=C(CSc1cccc[n+]1[O-])c1cc(Cl)ccc1Cl -14%, O=C(NCC(=O)N1CCCC(C(F)(F)F)C1)c1ccc(Oc2ccccc2)cc1 (configuration not stated) 0.46%, COc1ccc(OC)c(-c2cc(C(=O)Nc3c(C)nn(Cc4ccccc4)c3C)no2)c1 0.953%, CCOC(=O)c1[nH]c(C)c(C(=O)OCC)c1C -18.6%, COc1cc(NC(=O)c2cc(C(C)C)on2)cc(OC)c1OC 3.91%, COc1ccc(COc2cc(-c3cccc(OC)c3)nc3ccc(N)cc23)cc1 -1.86%, Cc1ccc(S(=O)(=O)N2CCCCC2CCNC(=O)C(=O)NCc2ccccc2)cc1 (configuration not stated) 5.15%, Cc1cc(Cl)ccc1OCCCC(=O)NO -13.8%, COc1ccc(N/C=C/C(=O)c2cc(OC)c(OC)c(OC)c2)cc1 -2.15%, Cn1nc(C(F)(F)F)c(/C=N/OC(=O)c2ccccc2)c1Sc1ccc(Cl)cc1 -8.27%, Cc1ccccc1NC(=S)N=Nc1c(O)n(C)c2ccc(S(=O)(=O)N3CCOCC3)cc12 -22.4%, C=CCNC(=S)NN=C1CCCCCCC1 -1.11%

— PubChem BioAssay AID651568 (National Center for Advancing Translational Sciences (NCATS), 2012)
